PubChem BioAssay AID1460 (National Center for Advancing Translational Sciences (NCATS), 2008)
Values joined by “and” are separate entries in the source; they are usually repeats but may differ in a detail not shown here. Identical values can stand only once. Hit rate of the full screen: of about 270,000 compounds, about 5,800 (2.1%) were called active. The shares of active, inactive and inconclusive entries below differ from those in the screen. Calls follow the shape of the dose curve; as a rule, active = well fitted inhibition curve with a large enough effect; inconclusive = small, poorly fitted or top-dose-only effect; inactive = flat fitted curve, though single readings scatter. Potencies beside an inconclusive call are fits to weak or partial responses and may not hold up.

target: Microtubule-associated protein tau (Homo sapiens) (UniProt P10636); assay: qHTS for Inhibitors of Tau Fibril Formation, Thioflavin T Binding; conditions: recombinant tau K18 P301L, heparin-induced fibrillization, ThT fluorescence; series mostly up to 57.4 µM; activity, negative = inhibition: at the top concentration; also: nearly all actives have a fitted effect of over 55% in size
In short: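 ThT emission at 510 nm, taken 1 hr after adding 30 uM dye, quantifies aggregates formed when 20 uM heparin acts on human tau K18 P301L for 6 hr at 37 C.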
% is scaled to controls: 0 for no effect and ±100 for the full control effect; potency is read from the fitted curve at half-maximal effect; tags tell the direction and shape of the fitted curve.

UniProt P10636, sequence (P10636 whole entry, looked up): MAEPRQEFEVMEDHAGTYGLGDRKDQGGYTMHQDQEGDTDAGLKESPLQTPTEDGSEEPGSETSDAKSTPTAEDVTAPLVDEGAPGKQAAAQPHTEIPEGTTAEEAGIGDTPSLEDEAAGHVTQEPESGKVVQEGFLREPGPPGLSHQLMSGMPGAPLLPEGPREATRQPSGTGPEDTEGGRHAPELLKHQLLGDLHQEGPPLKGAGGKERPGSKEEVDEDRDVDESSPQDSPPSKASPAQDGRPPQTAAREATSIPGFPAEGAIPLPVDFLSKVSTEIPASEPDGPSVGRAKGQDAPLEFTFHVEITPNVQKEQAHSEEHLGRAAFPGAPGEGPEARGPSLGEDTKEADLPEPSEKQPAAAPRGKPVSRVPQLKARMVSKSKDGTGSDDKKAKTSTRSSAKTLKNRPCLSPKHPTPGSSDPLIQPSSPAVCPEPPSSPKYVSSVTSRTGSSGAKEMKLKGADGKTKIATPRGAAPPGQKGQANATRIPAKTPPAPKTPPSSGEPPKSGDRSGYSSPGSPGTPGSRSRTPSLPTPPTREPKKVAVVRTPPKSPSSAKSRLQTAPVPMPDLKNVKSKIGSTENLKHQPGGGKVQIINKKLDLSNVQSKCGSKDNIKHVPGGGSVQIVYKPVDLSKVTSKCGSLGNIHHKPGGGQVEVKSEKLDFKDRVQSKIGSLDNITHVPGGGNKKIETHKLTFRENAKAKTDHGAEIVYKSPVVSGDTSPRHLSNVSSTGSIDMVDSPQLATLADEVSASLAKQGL

Compound	activity, negative = inhibition	Potency
O=C(NCCNC1CCN(Cc2ccccc2)CC1)c1cccs1	inactive: -7.62%	
CCOc1ccc(NC(=O)Cn2nc(CC)n3c(cc4sccc43)c2=O)cc1	inactive: -1.02%	
CC1CCN(C(=O)c2cc(-c3ccc(Cl)c(Cl)c3)on2)CC1	inactive: 3.4%	
CN(CCCC[C@H](CNCc1ccc(-c2ccccc2)cc1)N1C[C@H](c2ccccc2)N(CCc2ccc(Cl)c(Cl)c2)C(=O)C1=O)Cc1ccc(-c2ccccc2)cc1		inconclusive: 7.08 µM [inhibitor, full curve]
Cc1ccc(-c2csc(NC(=O)CSc3nc4ccccc4o3)n2)cc1		inconclusive: 2.51 µM [inhibitor, single point]
Cc1ccc(C(=O)N/C(=C\c2ccco2)C(=O)N2CCSCC2)cc1C	inactive: -2.66%	
CC(C)C(NC(=O)C(Cc1ccc(O)cc1)NC(=O)C(NC(=O)C(F)(F)F)C(C)C)C(=O)O (centres undefined)	inactive: -2.76%	
CC(C)c1nc(CN(C)C(=O)N[C@H](C(=O)N[C@@H](Cc2ccccc2)C[C@H](O)[C@H](Cc2ccccc2)NC(=O)OCc2cncs2)C(C)C)cs1		inconclusive: 39.8 µM [inhibitor, single point]
COc1cc2c(cc1OC)-c1cc3nc4ccccc4nc3n1C(C)(C)C2		inconclusive: 2.51 µM [inhibitor, full curve]
Cc1ccc(NC(=O)/C(=C/c2ccco2)c2ccccc2)c(C)c1		inconclusive: 25.1 µM [inhibitor, partial curve]
COCCNC(=O)CCCn1c(SCc2ccccc2C)nc2c(sc3ccccc32)c1=O	inactive: -0.452%	
Cc1cccc(-c2nsc(SCC(=O)Nc3ccc4c(c3)OCO4)n2)c1		inconclusive: 2.51 µM [inhibitor, full curve]
CCOC(=O)c1[nH]c(C)c(C(=O)N(CC)CC)c1C	inactive: -7.91%	
Cc1nn(Cc2ccc(Cl)cc2)c(C)c1NC(=O)CSc1nc2c(c(C(F)(F)F)n1)CCc1ccccc1-2	inactive: 2.36%	
Cn1c(SCC(=O)c2ccccc2)nnc1-c1ccco1	inactive: -14.4%	
CCOC(=O)/C(=N\Nc1ccccc1)c1csc(Nc2ccc(C)cc2)n1		inconclusive: 12.6 µM [inhibitor, partial curve]
N/C(=N\OC(=O)CCCOc1ccccc1)c1cccc(Br)c1	inactive: -8.68%	
CN1C=CC=C/C1=C1\SC(=S)N(Cc2ccccc2)C1=O		inconclusive: 28.2 µM [inhibitor, partial curve]
COc1cc(NC(=S)NC(=O)c2cc(C)cc(C)c2)ccc1NC(=O)c1cccs1		inconclusive: 10 µM [inhibitor, partial curve]
CC(C)c1ccc(NC(=S)Nc2ccc3[nH]c(=O)[nH]c3c2)cc1		inconclusive: 25.1 µM [inhibitor, partial curve, poor fit]
Nc1ccc(Oc2ccc3c(c2)C(=O)N(CC2CCCO2)C3=O)cc1 (centres undefined)	inactive: -7.37%	
Cc1cccc(NC(=S)N(CCN(C)C)Cc2cc3cccc(C)c3[nH]c2=O)c1	inactive: -1.37%	
Cn1c(N/N=C/c2cccs2)cc(=O)n(C)c1=O		inconclusive: 31.6 µM [inhibitor, single point]

Compound	activity, negative = inhibition	Potency
COc1cc(-c2coc3cc(OCc4ccccc4)c(OC)c(O)c3c2=O)cc(O)c1OC		inconclusive: 14.1 µM [inhibitor, partial curve]
O=C(O)c1ccccc1-c1nc2cc(Cl)ccc2c(=O)n1O	inactive: -4.42%	
COc1ccc(COC2OC[C@]3(C)[C@H]4C5=C(CN3C(=O)OC(C)(C)C)[C@H](C)C(CO)C(CO)C5CC[C@@H]24)cc1 (some centres undefined)	inactive: -5.37%	
Fc1cccc(/C=N/NC(=S)Nc2ccccc2Cl)c1	inactive: -3.95%	
COC(=O)[C@@]1(Cc2ccc(OC)cc2)[C@H]2c3cc(C(=O)N4CCCC4)n(CCc4c[nH]c5ccc(O)cc45)c3C[C@H]2CN1C(=O)c1ccccc1		inconclusive: 12.6 µM [inhibitor, partial curve, poor fit]
Cc1ccc(-c2csc3ncnc(N4CCN(C(=O)c5ccccc5)CC4)c23)cc1		inconclusive: 39.8 µM [inhibitor, partial curve]
O=c1cc(-c2ccc(Cl)cc2)[nH][nH]1		inconclusive: 17.8 µM [inhibitor, partial curve]
CCCCN(C)C(=O)C1CCC(Cn2c(=O)[nH]c3ccsc3c2=O)CC1 (centres undefined)	inactive: -1.25%	
COC(=O)c1cc(NC(=O)Cn2ncc3c([nH]c4ccccc43)c2=O)cc(C(=O)OC)c1	inactive: 5.96%	
Cc1ccc(S(=O)(=O)Nc2nc3ccccc3nc2N2CCN(c3ccccc3F)CC2)cc1		inconclusive: 11.2 µM [inhibitor, partial curve]
N#Cc1c(Cl)c(Cl)c2nnc(-c3ccc(Br)cc3)n2c1Cl		inconclusive: 17.8 µM [inhibitor, partial curve]
S=C(NCc1ccccc1)NNc1nc2ccccc2[nH]1		active: 28.2 µM
c1ccc2c(c1)nc(Nc1ccc(N3CCCCC3)cc1)c1nncn12		inconclusive: 15.8 µM [inhibitor, partial curve]
COc1ccc(Cc2nnc(N=Nc3c(O)[nH]c4ccc(Br)cc34)[nH]c2=O)cc1		active: 15.8 µM
Cc1ccc(Cl)cc1NC(=O)c1cc(S(=O)(=O)N2CCOCC2)cn1C	inactive: -1.91%	
COCCOc1ccc(C(F)(F)F)cc1NC(=O)c1ccc(C(F)(F)F)cc1	inactive: 1.92%	
Cc1cc(N2CCN(c3ccc(F)cc3)CC2)n2cnnc2n1		inconclusive: 11.2 µM [inhibitor, partial curve]
Cc1cc(/C=C(\C#N)C(=O)Nc2ccc(F)cc2)c(C)n1-c1ccc(N2CCOCC2)c([N+](=O)[O-])c1		inconclusive: 3.16 µM [inhibitor, full curve]
Cc1cccc(-c2nc3cc(NC(=O)COc4ccccc4F)ccc3o2)c1		inconclusive: 1 µM [inhibitor, full curve]
COc1ccc2c(Cl)c(C(=O)N/N=C/c3ccc4c(c3)OCO4)sc2c1		inconclusive: 1 µM [inhibitor, full curve]
CC(C)C(C(=O)O)N1C(=O)/C(=C/c2cccn2C)SC1=S (centres undefined)		inconclusive: 7.94 µM [inhibitor, partial curve]
Cc1ccc(CN2C(=O)C(C)(C)Oc3ccc(C(=O)N4CCCCC4)cc32)cc1		inconclusive: 28.2 µM [inhibitor, single point]
CC(=O)OC[C@@H]1O[C@H](CCO/N=C(\C)CCN2CCc3nc(-c4ccccc4)c(-c4ccccc4)cc3C2)C=C[C@@H]1OC(C)=O	inactive: -10.2% [at 11.5 µM]	

Compound	activity, negative = inhibition	Potency
COCCNC(=O)CSc1nc(-c2ccc(C)cc2)[nH]c1-c1ccc(OC)cc1	inactive: -11.3%	
COc1ccc(C(=O)c2sc3nc(-c4ccccc4)ccc3c2N)cc1		inconclusive: 11.2 µM [inhibitor, partial curve]
COc1ccccc1/C=C/C(=O)NCC(=O)N1CCC(N(C)C2CCCC2)CC1		inconclusive: 17.8 µM [inhibitor, partial curve, poor fit]
COc1ccc(/C=C/C(=O)c2oc3ccc(F)cc3c2C)cc1		inconclusive: 7.94 µM [inhibitor, partial curve]
COc1ccc(-c2nn(-c3ccccc3)cc2C2NC(=O)NC(C)=C2C(=O)OC(C)C)cc1Cl (centres undefined)	inactive: -2.38%	
CCOC(=S)SCc1cn2ccc(C)cc2n1		inconclusive: 17.8 µM [inhibitor, partial curve]
COc1ccc(C(=O)NC(=S)NC(C)(C)C)cc1Br		inconclusive: 7.08 µM [inhibitor, partial curve]
CCOC(=O)c1c(C)[nH]c(N=Nc2ccccc2Cl)c1C		active: 5.01 µM
CCOC(=O)c1c(NC(=O)c2ccc(N3C(=O)[C@@H]4[C@H](C3=O)[C@H]3C=C[C@@H]4C3)cc2)sc2c1CC(C)CC2 (some centres undefined)	inactive: 0.72%	
COCCN1C(=O)CS/C1=C(/C#N)C(=O)NCc1ccco1		inconclusive: 28.2 µM [inhibitor, partial curve, poor fit]
CCC(=O)Nc1cccc(C(=O)/C=C/c2cccs2)c1		inconclusive: 7.08 µM [inhibitor, partial curve]
Cc1ccc(N2CCN(C(=O)N3CCCC3)CC2)cc1Cl		inconclusive: 31.6 µM [inhibitor, partial curve]
COC(=O)COc1ccc2c(=O)c(-c3ccccc3)coc2c1		inconclusive: 4.47 µM [inhibitor, full curve, poor fit]
O=C(C(NS(=O)(=O)c1cccs1)c1ccccc1)N1CCN(c2ccccc2)CC1 (centres undefined)		inconclusive: 28.2 µM [inhibitor, single point]
C=COCC1CN2C(CCC(C)C2c2ccc(Br)cc2)C(=O)O1 (centres undefined)	inactive: -9.54% [at 11.5 µM] and inactive: -4.68% [at 11.5 µM]	
COc1ccc2[nH]cc(/C=C/C(=O)c3ccccc3)c2c1		inconclusive: 7.08 µM [inhibitor, partial curve]
CCn1cc(C(=O)O)c(=O)c2cc(F)c(N3CCNCC3)cc21		inactive
O=C(OCC(=O)N1CCCCC1)c1cc2ccccc2cc1O		inconclusive: 14.1 µM [inhibitor, partial curve]
CCn1nc(C)c2c(-c3ccccc3)cc(=O)n(C(C)C(=O)NCCc3ccc(OC)c(OC)c3)c21 (centres undefined)	inactive: -8.91%	
Cc1cccc(N=Nc2c(C)[nH]n(-c3ccccc3)c2=O)c1		inconclusive: 12.6 µM [inhibitor, partial curve]
COc1ccc(OC)c(C2CC(=O)NC(SC)=C2C#N)c1 (centres undefined)	inactive: -10.9%	
COC(=O)C/C=C\[C@H](C)[C@@H](OC)c1ccccc1Br	inactive: -9.57% [at 11.5 µM]	
CCOc1cc(-c2ccc(OC(=O)c3ccc(OC)cc3)c(OC)c2)cc(=O)c2c(C)oc(C)c12		inconclusive: 10 µM [inhibitor, partial curve]
